Results are given in words; binding and its absence hold for the method and conditions named. For some of these results: Binding seen in cells or lysates may run through a third protein. Some results given as binding are weak or reduced against the parent protein; the word gives no strength. For some of these results: Tags and fused reporters may be left off the sequences shown. One block for each molecule: values may come before it.
Columns and labels:
[1] = target: T1, RYBP-Flag (mouse) (UniProt Q8CCI5); test: co-IP; Flag purification of MEL-18-Flag, RYBP-Flag or CBX7-Flag from PGK12.1 mESC nuclear extract, analysed by western blot
T1 sequence: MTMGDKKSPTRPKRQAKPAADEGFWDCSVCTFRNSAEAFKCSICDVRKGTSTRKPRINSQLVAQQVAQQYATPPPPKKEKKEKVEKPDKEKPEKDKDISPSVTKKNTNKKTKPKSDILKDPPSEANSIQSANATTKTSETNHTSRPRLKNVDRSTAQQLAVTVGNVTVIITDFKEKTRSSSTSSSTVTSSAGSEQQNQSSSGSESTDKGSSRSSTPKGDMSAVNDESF

By UniProt entry, the sequences of proteins in these tests, tags left out.
UniProt Q9CQJ4: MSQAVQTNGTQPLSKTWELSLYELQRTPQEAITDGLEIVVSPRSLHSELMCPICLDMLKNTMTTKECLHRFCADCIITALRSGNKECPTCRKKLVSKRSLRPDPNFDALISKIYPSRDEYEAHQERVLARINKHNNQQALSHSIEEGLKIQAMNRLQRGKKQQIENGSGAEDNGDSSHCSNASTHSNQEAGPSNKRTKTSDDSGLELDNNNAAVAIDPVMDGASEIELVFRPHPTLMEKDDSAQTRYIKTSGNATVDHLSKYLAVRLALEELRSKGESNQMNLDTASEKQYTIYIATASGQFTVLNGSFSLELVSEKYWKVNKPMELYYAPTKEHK
UniProt O35730: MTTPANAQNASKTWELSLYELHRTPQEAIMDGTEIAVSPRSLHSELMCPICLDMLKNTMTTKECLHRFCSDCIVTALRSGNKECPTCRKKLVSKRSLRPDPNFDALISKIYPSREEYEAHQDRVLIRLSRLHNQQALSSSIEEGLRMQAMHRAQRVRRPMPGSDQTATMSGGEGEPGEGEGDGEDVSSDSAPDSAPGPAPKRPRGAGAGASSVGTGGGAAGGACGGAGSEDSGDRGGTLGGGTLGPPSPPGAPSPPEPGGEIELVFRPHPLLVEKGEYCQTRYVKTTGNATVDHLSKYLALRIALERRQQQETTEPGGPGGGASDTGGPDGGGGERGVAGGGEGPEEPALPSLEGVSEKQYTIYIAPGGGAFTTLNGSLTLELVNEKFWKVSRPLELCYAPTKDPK

[2] = target: CBX7-Flag (mouse) (UniProt Q8VDS3); test: as above
[3] = target: RING1B (mouse (endogenous in mESCs, NSCs, FSPE fibroblasts)) (UniProt Q9CQJ4); test: co-IP; endogenous proteins from Eed4 WT and Eed4 cKO (doxycycline, Eed-depleted) mESC nuclear extracts; antibodies to RING1B, MEL-18, RYBP or CBX7 crosslinked to Protein A/G magnetic beads; with or without Benzonase or EtBr; washes in C-100* (100 mM KCl) at 4°C; western blot
[4] = target: T2, RYBP (mouse (endogenous in mESCs, NSCs, FSPE fibroblasts)) (UniProt Q8CCI5); test: as above
T2 sequence: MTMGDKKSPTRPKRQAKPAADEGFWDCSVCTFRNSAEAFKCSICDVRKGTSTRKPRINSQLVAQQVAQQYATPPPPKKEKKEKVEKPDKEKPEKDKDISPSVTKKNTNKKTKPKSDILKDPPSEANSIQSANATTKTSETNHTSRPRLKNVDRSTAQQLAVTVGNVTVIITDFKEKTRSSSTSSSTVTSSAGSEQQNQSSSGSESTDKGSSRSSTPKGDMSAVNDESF

[5] = target: RING1B (mouse (endogenous in mESCs, NSCs, FSPE fibroblasts)) (UniProt Q9CQJ4); test: co-IP; endogenous proteins from FSPE mouse fibroblast nuclear extract; IP of RING1B and RYBP; with or without Benzonase or EtBr; western blot
[6] = target: T2, RYBP (mouse (endogenous in mESCs, NSCs, FSPE fibroblasts)); test: as above
[7] = target: T3, MEL-18-Flag (mouse) (UniProt P23798); test: SEC; MEL-18-Flag complexes purified from mESC nuclear extract by Flag affinity, run on Superose 6 PC 3.2/30 in C-100* buffer (100 mM KCl); fractions analysed by western blot
T3 sequence: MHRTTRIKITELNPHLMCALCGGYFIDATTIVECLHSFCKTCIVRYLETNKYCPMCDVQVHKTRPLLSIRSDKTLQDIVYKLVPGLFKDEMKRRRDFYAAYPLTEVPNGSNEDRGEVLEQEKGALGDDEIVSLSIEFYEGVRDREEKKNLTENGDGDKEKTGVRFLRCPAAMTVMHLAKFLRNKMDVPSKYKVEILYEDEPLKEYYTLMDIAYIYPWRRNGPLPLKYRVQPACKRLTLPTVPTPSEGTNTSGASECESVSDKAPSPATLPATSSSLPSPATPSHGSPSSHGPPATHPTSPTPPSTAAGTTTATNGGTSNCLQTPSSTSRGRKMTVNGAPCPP

[8] = target: T4, MEL-18 (mouse (endogenous in mESCs, FSPE fibroblasts)) (UniProt P23798); test: co-IP; endogenous proteins from Eed4 WT and Eed4 cKO (doxycycline, Eed-depleted) mESC nuclear extracts; antibodies to RING1B, MEL-18, RYBP or CBX7 crosslinked to Protein A/G magnetic beads; with or without Benzonase or EtBr; washes in C-100* (100 mM KCl) at 4°C; western blot
T4 sequence: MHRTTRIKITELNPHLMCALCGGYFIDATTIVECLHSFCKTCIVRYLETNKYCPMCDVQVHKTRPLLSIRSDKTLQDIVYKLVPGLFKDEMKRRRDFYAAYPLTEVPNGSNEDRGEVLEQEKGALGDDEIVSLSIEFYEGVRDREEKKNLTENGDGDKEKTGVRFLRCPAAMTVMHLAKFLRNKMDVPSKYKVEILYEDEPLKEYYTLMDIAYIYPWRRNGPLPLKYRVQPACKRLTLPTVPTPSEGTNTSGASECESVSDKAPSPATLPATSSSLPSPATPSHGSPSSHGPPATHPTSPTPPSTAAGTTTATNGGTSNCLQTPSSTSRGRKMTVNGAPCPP

[9] = target: CBX7 (mouse (endogenous in mESCs, NSCs, FSPE fibroblasts)) (UniProt Q8VDS3); test: as above
[10] = target: RING1B-Flag-Hisx2 (UniProt Q9CQJ4); test: co-purification of co-expressed recombinant proteins; Sf9 cells co-infected with baculoviruses for 60 hr; complexes purified as in Elderkin et al., 2007; analysed by western blot and Simply Blue Safe staining; bait not stated
[11] = target: T5, CBX7 (mouse (endogenous in mESCs, NSCs, FSPE fibroblasts)), Q8VDS3; test: co-IP; endogenous proteins from Eed4 WT and Eed4 cKO (doxycycline, Eed-depleted) mESC nuclear extracts; antibodies to RING1B, MEL-18, RYBP or CBX7 crosslinked to Protein A/G magnetic beads; with or without Benzonase or EtBr; washes in C-100* (100 mM KCl) at 4°C; western blot; conditions: remark: other sources report otherwise
T5 chain: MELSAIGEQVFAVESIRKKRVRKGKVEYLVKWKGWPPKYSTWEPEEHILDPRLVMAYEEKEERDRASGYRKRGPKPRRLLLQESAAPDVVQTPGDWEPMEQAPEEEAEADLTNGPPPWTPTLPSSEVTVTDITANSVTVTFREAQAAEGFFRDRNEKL

[12] = target: T6, CBX7-Flag (mouse), Q8VDS3; test: co-IP; Flag purification of MEL-18-Flag, RYBP-Flag or CBX7-Flag from PGK12.1 mESC nuclear extract, analysed by western blot; conditions: remark: other sources report otherwise
T6 chain: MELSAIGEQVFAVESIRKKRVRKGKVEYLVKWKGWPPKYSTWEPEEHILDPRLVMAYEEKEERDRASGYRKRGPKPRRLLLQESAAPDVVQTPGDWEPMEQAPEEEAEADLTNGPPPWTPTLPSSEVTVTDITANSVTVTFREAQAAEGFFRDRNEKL

binding [1]: binds
binding [2]: binds
Molecule: RING1A (from UniProt O35730 1-406)

binding [3]: binds
binding [4]: no binding
binding [5]: binds
binding [6]: no binding
Molecule: CBX7 (from UniProt Q8VDS3 1-158)

binding [7]: binds
binding [8]: binds
binding [9]: binds
binding [4]: binds
binding [1]: binds
binding [2]: binds
Molecule: RING1B (from UniProt Q9CQJ4 1-336)

binding [10]: binds
Molecule: CBX7-HA (from UniProt Q8VDS3 1-158)

binding [11]: binds
binding [12]: binds
B1: MEL-18, P23798 1-342 (protein)
chain: MHRTTRIKITELNPHLMCALCGGYFIDATTIVECLHSFCKTCIVRYLETNKYCPMCDVQVHKTRPLLSIRSDKTLQDIVYKLVPGLFKDEMKRRRDFYAAYPLTEVPNGSNEDRGEVLEQEKGALGDDEIVSLSIEFYEGVRDREEKKNLTENGDGDKEKTGVRFLRCPAAMTVMHLAKFLRNKMDVPSKYKVEILYEDEPLKEYYTLMDIAYIYPWRRNGPLPLKYRVQPACKRLTLPTVPTPSEGTNTSGASECESVSDKAPSPATLPATSSSLPSPATPSHGSPSSHGPPATHPTSPTPPSTAAGTTTATNGGTSNCLQTPSSTSRGRKMTVNGAPCPP

binding [10]: binds
B2: MEL18-HA (protein, UniProt P23798 1-342)
chain: MHRTTRIKITELNPHLMCALCGGYFIDATTIVECLHSFCKTCIVRYLETNKYCPMCDVQVHKTRPLLSIRSDKTLQDIVYKLVPGLFKDEMKRRRDFYAAYPLTEVPNGSNEDRGEVLEQEKGALGDDEIVSLSIEFYEGVRDREEKKNLTENGDGDKEKTGVRFLRCPAAMTVMHLAKFLRNKMDVPSKYKVEILYEDEPLKEYYTLMDIAYIYPWRRNGPLPLKYRVQPACKRLTLPTVPTPSEGTNTSGASECESVSDKAPSPATLPATSSSLPSPATPSHGSPSSHGPPATHPTSPTPPSTAAGTTTATNGGTSNCLQTPSSTSRGRKMTVNGAPCPP

binding [10]: binds
B3: RYBP-HA (protein, UniProt Q8CCI5 1-228)
chain: MTMGDKKSPTRPKRQAKPAADEGFWDCSVCTFRNSAEAFKCSICDVRKGTSTRKPRINSQLVAQQVAQQYATPPPPKKEKKEKVEKPDKEKPEKDKDISPSVTKKNTNKKTKPKSDILKDPPSEANSIQSANATTKTSETNHTSRPRLKNVDRSTAQQLAVTVGNVTVIITDFKEKTRSSSTSSSTVTSSAGSEQQNQSSSGSESTDKGSSRSSTPKGDMSAVNDESF

binding [8]: binds
binding [3]: binds
binding [4]: binds weakly
B4: MPH1 (protein, UniProt Q64028 1-1010)
chain: METESEQNSSSTNGSSSSGASSRPQIAQMSLYERQAVQALQALQRQPNAAQYFHQFMLQQQLSNAQLHSLAAVQQATIAASRQASSPNSSTAQQQTATTQASMNLATTSAAQLISRSQSVSSPSATTLTQSVLLGNTTSPPLNQSQAQMYLRPQLGNLLQVNRTLGRNVPLASQLILMPNGAVAAVQQEVPPAQSPGVHADADQVQNLAVRNQQASAQGPQMPGSTQKAIPPGASPVSGLSQTSSQALAVAQASSGASGQSLNLSQAGGGSGNSLPGSMGPGGGGQAPGGLGQLPSSGLTGGSCPRKGTGVVQPLPAAQTVTVSQGSQTEAESAAAKKAEADGSGQQSVGMNLTRTATPAPSQTLISSATYTQIQPHSLIQQQQQIHLQQKQVVIQQQIAIHHQQQFQHRQSQLLHTATHLQLAQQQQQQQQQQQQQQQQQQQQQQGTTLTAPQPPQVPPTQQVPPSQSQQQAQTLVVQPMLQSSPLTLPPEPTSKPPIPIQSKPPVAPIKPPQLGAAKMSATQQPPPHIPVQVVGTRQPGSAQAQALGLAQLAAAVPTPRGITGAVQPGQAHLASSPPSSQAAPGALQECPPALAAGMTLAPVQGTAHVVKGGPTASSPVVAQVPAAFYMQSVHLPGKAQTLAVKRKAESEEERDDLSALASVLPTKASPAAESPKVIEEKNSLGEKAEPVASLNANPPNSDLVALAPTPSAPPPTLALVSRQMGDSKPPQAIVKPQILTHIIEGFVIQEGAEPFPVGCSQFLKETKKPLQAGLPTGLNESQPSGPLGGDSPSVELEKKANLLKCEYCGKYAPAEQFRGSKRFCSMTCAKRYNVSCSHQFRLKRKKMKEFQEASYARVRRRGPRRSSSDIARAKIQGKRHRGQEDSSRGSDNSSYDEALSPTSPGPLSVRAGHGERDLGNTITTPSTPELQGINPVFLSSNPSQWSVEEVYEFIASLQGCQEIAEEFRSQEIDGQALLLLKEEHLMSAMNIKLGPALKICAKINVLKET

binding [11]: binds
binding [12]: binds
B5: MPH1, Q64028 1-1010 (protein)
chain: METESEQNSSSTNGSSSSGASSRPQIAQMSLYERQAVQALQALQRQPNAAQYFHQFMLQQQLSNAQLHSLAAVQQATIAASRQASSPNSSTAQQQTATTQASMNLATTSAAQLISRSQSVSSPSATTLTQSVLLGNTTSPPLNQSQAQMYLRPQLGNLLQVNRTLGRNVPLASQLILMPNGAVAAVQQEVPPAQSPGVHADADQVQNLAVRNQQASAQGPQMPGSTQKAIPPGASPVSGLSQTSSQALAVAQASSGASGQSLNLSQAGGGSGNSLPGSMGPGGGGQAPGGLGQLPSSGLTGGSCPRKGTGVVQPLPAAQTVTVSQGSQTEAESAAAKKAEADGSGQQSVGMNLTRTATPAPSQTLISSATYTQIQPHSLIQQQQQIHLQQKQVVIQQQIAIHHQQQFQHRQSQLLHTATHLQLAQQQQQQQQQQQQQQQQQQQQQQGTTLTAPQPPQVPPTQQVPPSQSQQQAQTLVVQPMLQSSPLTLPPEPTSKPPIPIQSKPPVAPIKPPQLGAAKMSATQQPPPHIPVQVVGTRQPGSAQAQALGLAQLAAAVPTPRGITGAVQPGQAHLASSPPSSQAAPGALQECPPALAAGMTLAPVQGTAHVVKGGPTASSPVVAQVPAAFYMQSVHLPGKAQTLAVKRKAESEEERDDLSALASVLPTKASPAAESPKVIEEKNSLGEKAEPVASLNANPPNSDLVALAPTPSAPPPTLALVSRQMGDSKPPQAIVKPQILTHIIEGFVIQEGAEPFPVGCSQFLKETKKPLQAGLPTGLNESQPSGPLGGDSPSVELEKKANLLKCEYCGKYAPAEQFRGSKRFCSMTCAKRYNVSCSHQFRLKRKKMKEFQEASYARVRRRGPRRSSSDIARAKIQGKRHRGQEDSSRGSDNSSYDEALSPTSPGPLSVRAGHGERDLGNTITTPSTPELQGINPVFLSSNPSQWSVEEVYEFIASLQGCQEIAEEFRSQEIDGQALLLLKEEHLMSAMNIKLGPALKICAKINVLKET

Source: PMC3281992
